These results are taken from the RNAGym collection of RNA variant scans (doi:10.7554/elife.90254).

The source gives no read counts; variants with many changes may rest on few reads.

The labels stand for the following.
B1: OR4K15 (parent)
chain: GUUAACGGUCAUAGGCCAUGGAAACUAGGAGCACCAUUUCGCUGCCAGUGAAGAAAUGAACAAAGAAAAUCUGGGCCAGGCAGGCAUCAAAAGAAAUAGUCUUGCGCUCAACCAGAAAGUCUGUAAUCAUUUUAAGGGUA

Variants of B1 are the subject of the series. As to the kind of experiment: self-cleavage, relative activity (ratio to wild type); higher = more cleavage; in vitro, sequencing; the parent is a self-cleaving ribozyme.
GUUAACGGUCAUAGGCCAUGGAAGCUAGGAGCACCAUUUCGCUGCCAGUGAAGAAAUGAACAAAGAGAAUCUGGGCCGGGCAGGCAUCAAAAGAAAUAGUCUUGCGCUCAACCAGAAAGUCAGUAAUCAUUUUAAGGGUA: the self-cleavage was 0.24.

Turning to GUUAACGGUCAUAGGCCAUGGAAGCUAGGAGCACCAUUUCGCUGCCAGUGAAGAAAUGAACAAAGAAAAUCUGGGCCAGGCAGGCAUCAAAAGAAAUAGUCUUGCGCUCAACCAGAAGGACUGUAAUCAUGUUAAGGGUA, the self-cleavage is 0.35.

With GUUAACGGUCAUAGGCCAUGGAAGCUAAGAGCACCCUUUCGCCGCCAGUGAAGAAAUGAACAAAGAAAAUCUGGGCCAGGCAGGCAUCAAAAGAAAUAGUCUUGCGCUCAACCAGAAAGUCUGUAAUCAUCUUAAGGGUA, the self-cleavage came out at 1.7.

For GUUAACGGUCAUAGGCCAUGGAAGCUAGGAGCACCAUUUCGCUGCCAGUGAAGAAAUGAACAAAGAGAAUCUGGGCCAGGCAGGCAUCAAAAGAAAUAGUCUUGCGCUCAACCAGAGAGUCUGUAAUCGUUUUAAGGGUA, the self-cleavage is 0.64.

Consider GUUAACGGUCAUAGGCCAUGGAAGCUAGGAGCACCAUUUCGCUGCCAGUGAAGAAAUGAACAAAGAAAGUCUGGGCCAGGCAGGCACCAAAAGAAAUAGUCUUGCGCUCAACCAGAAAGUCUGUAAUCAUCUUAAGGCUA, for which the self-cleavage worked out at 0.44.

Consider GUUAACGGUCAUAGGCCAUGGAAGCUAGGAGCACCAUUUCGCUGCCAGUGAAGAAAUGAACAAAGAAAAUCUGGGCCAGGCAGGCGUCAAAAGAAAUGGUCUUGCGCUCAACCAGAAAGCCUGCAACCAUUUUAAGGGUA, for which the self-cleavage amounted to 0.01.

With GUUAACGGUCAUAGGCCAUGGAAGCUAGGAGCAUCGUCUCGCUGCCAGUGAAGAAAUGAACAAAGAAAAUCUGGGCCAGGCAGGCAUCAAAGGAAACAGUCUUGCGCUCAACCAGAAAGUCUGUAAUCAUUUUAAGGGUA, the self-cleavage was found to be 0.74.

Turning to GUUAACGGUCAUAGGCCAUGGAAGCUAGGAGCACCAUUUCGCUGCCAGUGAAGAAAUGAACAGAGAAAAUCUGGGCCAGGCAGGCAUCAAAAGAAAUAGUCUUGCGCUCAGCCAGAAAGUCUGUAAUCAUUUUAAGGGUA, the self-cleavage is 0.05.

Regarding GUUAACGGUCAUAGGCCAUGGAAGCUAGGAGCACCAUUUCGCUGCCAGUGAAGAAAUGAACAAAGAAAAUCUGGGCCAGGCAGGAAUCAAAAGAAACAGUCUUGCGCUCAACCAGAAAGUCUGUAAUCAUUUUAAGGGUA, the self-cleavage amounted to 0.71.

Consider GUUAACGGUCAUAGGCCAUGGAAGCUAGGAGCAUCAUUUCGCUGCCUGUGAAGAAAUGAACAAAGAAAAUCUGGGCCAGGCAGGCAUCAAAAGAAAUAGUCUUGCGCUCAACCAGAAAGUCUGUAAUCAUUCUAAGGGUA, for which the self-cleavage is 0.75.

Regarding GUUAACGGUCAUAGGCCAUGGAAGCUAGGAGCACCAUUUCGCUGCCAGUGAAGAAAUGAACAAAGAAAAUCUGGGCCAGGCAGGCAUCAAAAGAAAUAGUCUUGCGCUCAGCCGGAAGGUCUGCAAUCAUUUUAAGGGUA, the self-cleavage is 0.01.

GUUAACGGUCAUAGGCCAUGGAAGCUAGGAGCACCAUUUCGCUGCCAGUGAAGAAAUGAACAAAGAAAAUCUGGGCCAGGCAGGCAUCAAAAGAAAUAGUCUUGCGCUCAACUAGACGGUCUGUAAUCAUUUUAAGGGUA: the self-cleavage was found to be 0.

GUUAACGGUCAUAGGCCAUGGAAGCUAGGAGCACCAUUUCGCUGCCAGUGAAGAAAUGAACAAAGGAAAUCUGGGCCAGGCAGGCAUCAAAAGAAAUAGUCAUGCGCUCAACCAGAAAGUCUGUAAUCAUUUUAAGGGUA: the self-cleavage was found to be 0.27.

Regarding GUUAACGGUCAUAGGCCAUGGAAGCUAGGAGCACCAUUUCGCUGCCAGUGAAGAAAUGAAUAAAGAAAAUCUGGGCCAGGCGGGCAUCAAAAGAAAUAGUCUUGCGCUCAACCAGAAGGUCUGUAUUCAUUUUAAGGGUA, the self-cleavage amounted to 0.58.

Consider GUUAACGGUCAUAGGCCAUGGAAGCUAGGAGCACCAUUUCGCUGCCAGUGAAGAAAUGAACAAAGAAGAUCUGGGCCAGGCAGGCAUCAAAUGAAGUAGUCUUGCGCUCAACCAGAAAGUCUGUAAUCAUUUUAAGGGUA, for which the self-cleavage was 1.78.

For the variant GUUAACGGUCAUAGGCCAUGGAAGCUAGGAUCACCACUUCGCUGCCAGUGAAGAAAUGAACAAAGAAAAUCAGGGCCAGGCAGGCAUCAAAAGAAAUAGUCUUGCGCUCAACCAGAAAGUCUGUAAUCAUUUUAAGGGUA, the self-cleavage is 0.37.

On to GUUAACGGUCAUAGGCCAUGGAAGCUAGGAGCACCAUUUCGCUGCCAGUGAAGAAAUGAACAAAGAGAAUCUGGGCCAGGCAGGCAUCAAAAGAAGUAGUCUUGCGCUCAACCAGGAAGUCUGUAAUCAUUUUAAGGGUA, for which the self-cleavage is 1.04.

As to GUUAACGGUCAUAGGCCAUGGAAGCUAGGAGCACCAUUUCGCUGCCAGUGAAGAAAUGAACAAAGAAAAUCUGGGCCAGGCAGGCAUCGAAAGAAAUAGUCUUGCGCUCAACCAGAAAGCCUGUAAUCAUUUUAAGGGUA, the self-cleavage was 0.01.

As for GUUAACGGUCAUAGGCCAUGGAAGCUAGGAGCACCAUUUCGCUGCCAGUGAAGAAAUGAACAAAGAAAAUCUGGGCCAGGCAGGCAUCAGAAGAAAUAGUCUCGCGCUCAACCAGAAAGUCUGUAAUCAUUUUAAGGGUA, the self-cleavage came to 0.47.

For GUUAACGGUCAUAGGCCAUGGAAGCUAGGAGCACCAUUUCGCUGCCAGUGAAGAAAUGAACAAAGAAAAUCUGGGCCAGGCAGGCAUCAAGAGGAAUAGUCUUGCGCUCAACCUGAAAGUCUGUACUCAUUUUAGGGGUA, the self-cleavage amounted to 0.01.
